Laboratory results: the supplement of paper PMC11417369
± gives the standard deviation of the averaged measurements. The list shows a part of the results.

The sequences below were run on PfAP2-LT AP2 domain (GST-tagged) (assay: gcPBM binding intensity (ln(normalized median fluorescence intensity)); higher = stronger DNA binding).
Method in brief: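 Each value is the highest Masliner-normalised natural-log median intensity across replicate spots of either orientation of a probe. The probes were primer-extended double-stranded 36-bp intergenic genomic sequences on an Agilent 4 × 180k array, alongside negative controls, exposed for 1 h to GST-tagged P. falciparum DNA-binding domains expressed in E. coli. Bound protein was picked up with Alexa488 anti-GST antibody and scanned at 488 nm.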

**Q.** With “TTTCTTCTTCAATGTTGTACTTTTCTCTTTTCTTAA [XGTACX_site1017]” as the sequence, how does the “gcPBM binding intensity (ln)” value read?
**A.** The value was 8.76 ± 0.47.

**Q.** How did the “gcPBM binding intensity (ln)” value turn out when “GATATATATGTTCACACACACATGGAAATATATATA [CACACA_site4371]” was run?
**A.** Its value is 9.38 ± 0.18.

**Q.** For “ATATCATAAAAAATGTGTACATATATGAACATATAA [XGTACX_site2239]”, which “gcPBM binding intensity (ln)” value is on record?
**A.** Its value is 8.82 ± 0.49.

**Q.** With “TTAAGATCCTAAAAAACACACAATTGCGAATAATAA [CACACA_site6005]” as the sequence, how does the “gcPBM binding intensity (ln)” value read?
**A.** Its value is 8.84 ± 0.47.

**Q.** Which “gcPBM binding intensity (ln)” value does the source give for “GGAAATTAACAGAACACAATGTAACAATTTCTAACA [CACACA_negctrl_site1250]” here?
**A.** Its value is 8.85 ± 0.4.

**Q.** With “TATTTTCATTATACTACTTCGAAGATACCCTTTTTT [CACACA_negctrl_site256]” as the sequence, how does the “gcPBM binding intensity (ln)” value read?
**A.** Its value is 8.78 ± 0.49.

**Q.** With “AGATAAATATATTGTAGTACAGGAGCATAAATATAT [XGTACX_site8267]” as the sequence, how does the “gcPBM binding intensity (ln)” value read?
**A.** Its value is 8.98 ± 0.4.

**Q.** For “TATAAACATTAAAGGTGTACAATTTAATTTCAATTT [XGTACX_site2944]”, which “gcPBM binding intensity (ln)” value is on record?
**A.** Its value is 8.67 ± 0.4.

**Q.** “GTTCTTCCTTGTAAATGTACAAATACAAAATGTTCC [XGTACX_site6738]” was tested. Which “gcPBM binding intensity (ln)” value did it give?
**A.** Its value is 8.71 ± 0.38.

**Q.** For “CATTATTCTTTTAATATACACACTTTGTCTTTTCGC [CACACA_site2762]”, which “gcPBM binding intensity (ln)” value is on record?
**A.** Its value is 9.07 ± 0.42.

**Q.** Which “gcPBM binding intensity (ln)” value does the source give for ATATTATTATATATAGTGCATATTATTATTTTTATT here?
**A.** Its value is 8.74 ± 0.38.

**Q.** Which “gcPBM binding intensity (ln)” value does the source give for “TCTCATAGTAAACACACACACACACCCACATATATA [CACACA_site5034]” here?
**A.** Its value is 9.97 ± 0.071.

**Q.** With “CCTCATACGAAATATAAACACACATACAATAAATAA [CACACA_site8620]” as the sequence, how does the “gcPBM binding intensity (ln)” value read?
**A.** Its value is 8.97 ± 0.36.

**Q.** How did the “gcPBM binding intensity (ln)” value turn out when “TATGCACTTTAGGGCAGTACGTCAACATTATCTTTA [XGTACX_site3382]” was run?
**A.** Its value is 8.69 ± 0.42.

**Q.** “ATTTTTTTCATAGACACACACAATATATCTGTTTCC [CACACA_site3023]” was tested. Which “gcPBM binding intensity (ln)” value did it give?
**A.** Its value is 9.49 ± 0.51.

**Q.** Which “gcPBM binding intensity (ln)” value does the source give for “ATAAATTTTTTTTTTTTTTTTTTTTTTTTTTTTTTT [CACACA_negctrl_site508]” here?
**A.** The value was 8.64 ± 0.2.

**Q.** “TATATTTATTATAACACACACATATAAATATTATAG [CACACA_site6726]” was tested. Which “gcPBM binding intensity (ln)” value did it give?
**A.** Its value is 8.97 ± 0.4.

**Q.** With TGTTAAAATTATTTGGTGCACTTGTTTTACCTTATT as the sequence, how does the “gcPBM binding intensity (ln)” value read?
**A.** The value was 8.96 ± 0.49.

**Q.** Which “gcPBM binding intensity (ln)” value does the source give for “TTTTTTTTTTTTCAATCACACATGTTTTAATTATTT [CACACA_site5532]” here?
**A.** Its value is 8.69 ± 0.54.

**Q.** “TGTACGTTTTATAACACACACACAAAAAAAAAAAAA [CACACA_site3875]” was tested. Which “gcPBM binding intensity (ln)” value did it give?
**A.** The value was 9.14 ± 0.37.

**Q.** With “TCATTTCACAGACACACACACACAAGATATTTCCTT [CACACA_site7774]” as the sequence, how does the “gcPBM binding intensity (ln)” value read?
**A.** Its value is 9.7 ± 0.25.

**Q.** Which “gcPBM binding intensity (ln)” value does the source give for “TGTAATAATATTTATGTGCACATATATTAAACTATA [GTGCAC_site9584]” here?
**A.** The value was 8.73 ± 0.35.

**Q.** How did the “gcPBM binding intensity (ln)” value turn out when “AAGATAAAATGATGCACACAAAAGGGTGTAATATAT [CACACA_site1706]” was run?
**A.** The value was 9.35 ± 0.42.

**Q.** “TCTTCTTTTTTTTTTTTGTATTATTATAAATATTAT [CACACA_negctrl_site1668]” was tested. Which “gcPBM binding intensity (ln)” value did it give?
**A.** The value was 8.53 ± 0.6.

**Q.** “GAAGTTTTCTTAAAGATGCACTTTTTAAAAATAAAA [GTGCAC_site9941]” was tested. Which “gcPBM binding intensity (ln)” value did it give?
**A.** Its value is 8.14 ± 0.44.

**Q.** For “TTTTTTTTTTTTAATGCACACAATATATAATATGTA [CACACA_site3694]”, which “gcPBM binding intensity (ln)” value is on record?
**A.** The value was 8.78 ± 0.48.

**Q.** “TTTTATATTTATTTTTGTACATAAATGATCTCAAAT [XGTACX_site7768]” was tested. Which “gcPBM binding intensity (ln)” value did it give?
**A.** The value was 8.54 ± 0.48.

**Q.** For “TGTTTTTAAAAATATACACACACAGATATTATATAT [CACACA_site8162]”, which “gcPBM binding intensity (ln)” value is on record?
**A.** The value was 9.09 ± 0.33.

**Q.** For “ATATATATATATTTATGTACGCATTTATAGACGTAG [XGTACX_site6031]”, which “gcPBM binding intensity (ln)” value is on record?
**A.** The value was 8.8 ± 0.33.

**Q.** With “AAATATTATAATAATTGTACTATATATACAGTTATT [XGTACX_site1963]” as the sequence, how does the “gcPBM binding intensity (ln)” value read?
**A.** The value was 8.88 ± 0.39.

**Q.** How did the “gcPBM binding intensity (ln)” value turn out when “TAAAATATGTCATGGGTGCTTCTTTTTATACCTATG [GTGCAC_site9888]” was run?
**A.** The value was 8.87 ± 0.48.

**Q.** For “AAAAAAAAAAAATTATGTACATATTATATATAATGG [XGTACX_site2885]”, which “gcPBM binding intensity (ln)” value is on record?
**A.** The value was 8.59 ± 0.42.

**Q.** How did the “gcPBM binding intensity (ln)” value turn out when “TATGATAACCATAATTGTACAGAATGAAACGTAAAT [XGTACX_site1653]” was run?
**A.** The value was 8.96 ± 0.32.

**Q.** Which “gcPBM binding intensity (ln)” value does the source give for “ACTTAAATAATACATACACACATGTACTTACAGAAA [CACACA_site8458]” here?
**A.** Its value is 8.98 ± 0.42.

**Q.** Which “gcPBM binding intensity (ln)” value does the source give for “AGAAAAAAAAAAAAAAATAAAAAAATAAATAAATAA [GTGCAC_negctrl_site161]” here?
**A.** Its value is 8.29 ± 0.59.

**Q.** For “AAAACGCAGTTTAATATACACACCAAAAAAAAAAAA [CACACA_site3036]”, which “gcPBM binding intensity (ln)” value is on record?
**A.** The value was 8.84 ± 0.45.

**Q.** For “CACAAATATATACATACACACATATATACACATATA [CACACA_site8024]”, which “gcPBM binding intensity (ln)” value is on record?
**A.** The value was 9.37 ± 0.29.

**Q.** With “TTTGAGATGTGGTGTACACAAAATTAGGTACACATC [CACACA_site5773]” as the sequence, how does the “gcPBM binding intensity (ln)” value read?
**A.** The value was 8.96 ± 0.42.

**Q.** With “TGTTTTAAACTAATTTGTACATAGTTATTTATATTT [XGTACX_site7196]” as the sequence, how does the “gcPBM binding intensity (ln)” value read?
**A.** The value was 8.69 ± 0.59.

**Q.** How did the “gcPBM binding intensity (ln)” value turn out when “ATTATATAAGTACACAAACAAGTATGAGATTCAAAA [GTGCAC_negctrl_site119]” was run?
**A.** Its value is 8.88 ± 0.5.

**Q.** How did the “gcPBM binding intensity (ln)” value turn out when TATTAATTTCGGGAAGTGCATTATGTTTATAGAATA was run?
**A.** The value was 8.44 ± 0.37.

**Q.** How did the “gcPBM binding intensity (ln)” value turn out when “CCATATATTTGGTATAGTACTTTTTATTTTATTTCA [XGTACX_site8933]” was run?
**A.** Its value is 8.77 ± 0.47.

**Q.** “AATTGTTTTTTTTTCTTATTTTATGTTATACACACA [TGCATGCA_negctrl_site380]” was tested. Which “gcPBM binding intensity (ln)” value did it give?
**A.** The value was 9.18 ± 0.41.

**Q.** With “AAAAAAAAAAAAAACACATGCAGAAGAAAAAAAATA [TGCATGCA_site545]” as the sequence, how does the “gcPBM binding intensity (ln)” value read?
**A.** The value was 8.85 ± 0.51.

**Q.** For “ATATATTTTTCTTTACGTACGAAGCAAAATAACATT [XGTACX_site8145]”, which “gcPBM binding intensity (ln)” value is on record?
**A.** Its value is 8.57 ± 0.33.
